{
  "source": "paper PMC6602471",
  "note": "The list shows a part of the results. At the low end of the ranking the order means little.",
  "data": [
    {"molecular_target": "T1, ELK1 (UniProt P19419)", "T1 sequence": "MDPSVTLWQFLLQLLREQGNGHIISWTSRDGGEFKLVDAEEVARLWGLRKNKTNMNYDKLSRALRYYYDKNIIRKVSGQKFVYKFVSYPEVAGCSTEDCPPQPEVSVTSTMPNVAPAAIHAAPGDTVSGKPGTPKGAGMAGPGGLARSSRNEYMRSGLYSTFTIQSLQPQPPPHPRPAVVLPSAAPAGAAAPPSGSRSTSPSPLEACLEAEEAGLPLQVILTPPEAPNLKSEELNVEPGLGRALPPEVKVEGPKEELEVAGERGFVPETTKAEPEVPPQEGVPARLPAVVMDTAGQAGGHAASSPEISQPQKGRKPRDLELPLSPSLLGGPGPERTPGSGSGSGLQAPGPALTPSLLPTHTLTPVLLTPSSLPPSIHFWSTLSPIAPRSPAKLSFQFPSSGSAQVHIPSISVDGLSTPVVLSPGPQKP", "test": "custom PBM", "conditions": "custom protein-binding microarray; buffer, salt, pH and temperature not stated; high values mean tight binding; double strand, one strand shown", "values": [
      {"sequence": "GATTTATTTCTGCCCTTATTCGCACGTGCCATAACAGTCTTGATTCGCTTGACGCTGCTG", "binding signal (log fluorescence intensity)": 8.91},
      {"sequence": "TGGCGGGTAAGGGAATGTAGATCACGTGAATGAAAAGTCTTGATTCGCTTGACGCTGCTG", "binding signal (log fluorescence intensity)": 8.95},
      {"sequence": "TACTGACTTATATATGCGAAGGCACATGAATAGACCGTCTTGATTCGCTTGACGCTGCTG", "binding signal (log fluorescence intensity)": 8.84},
      {"sequence": "CTGGGACTTAACCCAACTCTGCCACGTGGGTCGTTTGTCTTGATTCGCTTGACGCTGCTG", "binding signal (log fluorescence intensity)": 8.76},
      {"sequence": "TCCGGCTACCAGCTCCACCTACTTCAGGCCTTGTAGGTCTTGATTCGCTTGACGCTGCTG", "binding signal (log fluorescence intensity)": 8.78},
      {"sequence": "TCCGGCTACCAGCTACACCCACTTCAGGCCTTGTAGGTCTTGATTCGCTTGACGCTGCTG", "binding signal (log fluorescence intensity)": 8.83},
      {"sequence": "CAGCATAGGACTTCTTCCCTGAAGCAATTGTTAACCGTCTTGATTCGCTTGACGCTGCTG", "binding signal (log fluorescence intensity)": 9.02},
      {"sequence": "CTGGGACTTGACCCAACTCTGTCACGTGGGTCGTTTGTCTTGATTCGCTTGACGCTGCTG", "binding signal (log fluorescence intensity)": 8.75},
      {"sequence": "TAAAGGGAAGACGGTTGTGGTAGTTCCGGGTATTTAGTCTTGATTCGCTTGACGCTGCTG", "binding signal (log fluorescence intensity)": 11.3},
      {"sequence": "TGTCGGGTAAGGGAATGTAGATCACGTGAATGACAAGTCTTGATTCGCTTGACGCTGCTG", "binding signal (log fluorescence intensity)": 8.94},
      {"sequence": "CAGCATAGGACTTCTTCCCTAAAGCAATTGATAACCGTCTTGATTCGCTTGACGCTGCTG", "binding signal (log fluorescence intensity)": 8.81},
      {"sequence": "GCTGCTGCGGTGCATACCCCACCGGAAGTGACCCCGGTCTTGATTCGCTTGACGCTGCTG", "binding signal (log fluorescence intensity)": 11},
      {"sequence": "GATTAATTTCTGCCCTTATTCGCACATGCCATAACAGTCTTGATTCGCTTGACGCTGCTG", "binding signal (log fluorescence intensity)": 8.87},
      {"sequence": "TAAAGGGAAGACGGTTGTGGTAGTTCCGGGTATTATGTCTTGATTCGCTTGACGCTGCTG", "binding signal (log fluorescence intensity)": 11},
      {"sequence": "CTGGGACTTGACCCAACTCTGCCACGTGGGTTGTTTGTCTTGATTCGCTTGACGCTGCTG", "binding signal (log fluorescence intensity)": 8.79},
      {"sequence": "TGTCGGGTAAGGGAATGTAGATCACGTGAGTGAAAAGTCTTGATTCGCTTGACGCTGCTG", "binding signal (log fluorescence intensity)": 8.85},
      {"sequence": "TCCGGCTCCCAGCTCCACCCACTTCAGGCCTTGTAGGTCTTGATTCGCTTGACGCTGCTG", "binding signal (log fluorescence intensity)": 8.92},
      {"sequence": "GGAAAAAGGCCCAGGATAACACCGGAAGTGGGCTTAGTCTTGATTCGCTTGACGCTGCTG", "binding signal (log fluorescence intensity)": 11.1},
      {"sequence": "CAGCATAGGACTTCTTCCCTGAAGCAATTGCTAACCGTCTTGATTCGCTTGACGCTGCTG", "binding signal (log fluorescence intensity)": 8.83},
      {"sequence": "GGAAAAAGGCCCAGGGTAACACCGGAAGTGGACTTAGTCTTGATTCGCTTGACGCTGCTG", "binding signal (log fluorescence intensity)": 10.9},
      {"sequence": "CAGCATAGGACTTCTTCCCTGAAGCAATTCATAACCGTCTTGATTCGCTTGACGCTGCTG", "binding signal (log fluorescence intensity)": 8.93},
      {"sequence": "TACTGACTTATATATGCGAATGAACATGAATAGACCGTCTTGATTCGCTTGACGCTGCTG", "binding signal (log fluorescence intensity)": 8.92},
      {"sequence": "TACTGACTTATATATGCGACTGCACATGAATAGACCGTCTTGATTCGCTTGACGCTGCTG", "binding signal (log fluorescence intensity)": 8.85},
      {"sequence": "GATTAATTTCTGCCCTTATTCGCACGTTCCATAACAGTCTTGATTCGCTTGACGCTGCTG", "binding signal (log fluorescence intensity)": 8.74},
      {"sequence": "TAAAGGGAAGACGGTTGTGGTAGTTCCGGGTATAAAGTCTTGATTCGCTTGACGCTGCTG", "binding signal (log fluorescence intensity)": 11.3},
      {"sequence": "TAAAGGGAAGACGGTTGTGGTATTTCCGGGTATTAAGTCTTGATTCGCTTGACGCTGCTG", "binding signal (log fluorescence intensity)": 11.5},
      {"sequence": "CGGACGTGTCGTAAACGTCGGATATCCGGTTCTTCTGTCTTGATTCGCTTGACGCTGCTG", "binding signal (log fluorescence intensity)": 12.2},
      {"sequence": "GGAAAAAGGCCCAGAGTAACACCGGAAGTGGGCTTAGTCTTGATTCGCTTGACGCTGCTG", "binding signal (log fluorescence intensity)": 11},
      {"sequence": "GCTGGTGCGGTGCATACCCCACCGGATGTGACCCCGGTCTTGATTCGCTTGACGCTGCTG", "binding signal (log fluorescence intensity)": 10.2},
      {"sequence": "CTGAGACTTGACCCAACTCTGCCACGTGGGTCGTTTGTCTTGATTCGCTTGACGCTGCTG", "binding signal (log fluorescence intensity)": 8.86},
      {"sequence": "GTGTATACGATCCCATCCAACACACGTGTTAAAATGGTCTTGATTCGCTTGACGCTGCTG", "binding signal (log fluorescence intensity)": 9.01},
      {"sequence": "CTGGAACTTGACCCAACTCTGCCACGTGGGTCGTTTGTCTTGATTCGCTTGACGCTGCTG", "binding signal (log fluorescence intensity)": 8.79},
      {"sequence": "GCTGCTGCGCTGCATACCCCACCGGATGTGACCCCGGTCTTGATTCGCTTGACGCTGCTG", "binding signal (log fluorescence intensity)": 10.2},
      {"sequence": "CTGGGACTTGACCCAACTCTGCCACGTAGGTCGTTTGTCTTGATTCGCTTGACGCTGCTG", "binding signal (log fluorescence intensity)": 8.81},
      {"sequence": "GATTAATTTCTGCCCTTATTCGCACCTGCCATAACAGTCTTGATTCGCTTGACGCTGCTG", "binding signal (log fluorescence intensity)": 8.92},
      {"sequence": "CCCGGCTACCAGCTCCACCCACTTCAGGCCTTGTAGGTCTTGATTCGCTTGACGCTGCTG", "binding signal (log fluorescence intensity)": 8.73},
      {"sequence": "TGTCGGGTAAGGGAATGTAGATCACGTGAATGAATAGTCTTGATTCGCTTGACGCTGCTG", "binding signal (log fluorescence intensity)": 8.98},
      {"sequence": "GCTGCTGCGGTGCATACCCCACCGGATGTGACCCCCGTCTTGATTCGCTTGACGCTGCTG", "binding signal (log fluorescence intensity)": 10.1},
      {"sequence": "TACTGACTTATATATGCGAATGTACATGAATAGACCGTCTTGATTCGCTTGACGCTGCTG", "binding signal (log fluorescence intensity)": 9.03},
      {"sequence": "GTGTATAGGATCCCATCCAACACACGTGTTAAACTGGTCTTGATTCGCTTGACGCTGCTG", "binding signal (log fluorescence intensity)": 8.9}
    ]}
  ]
}
